# Experimental data published in a collection of fitness landscapes (doi:10.1126/science.1257360).
# The other results are listed elsewhere or left out.
# B1: PhoQ; a variant is named by its letters at X, in order, P23837 (parent)
# chain: MKKLLRLFFPLSLRVRFLLATAAVVLVLSLAYGMVALIGYSVSFDKTTFRLLRGESNLFYTLAKWENNKLHVELPENIDKQSPTMTLIYDENGQLLWAQRDVPWLMKMIQPDWLKSNGFHEIEADVNDTSLLLSGDHSIQQQLQEVREDDDDAEMTHSVAVNVYPATSRMPKLTIVVVDTIPVELKSSYMVWSWFIYVLSANLLLVIPLLWVAAWWSLRPIEALAKEVRELEEHNRELLNPATTRELTSLVRNLNRLLKSERERYDKYRTTLTDLTHSLKTPLXXLQXXLRSLRSEKMSVSDAEPVMLEQISRISQQIGYYLHRASMRGGTLLSRELHPVAPLLDNLTSALNKVYQRKGVNISLDISPEISFVGEQNDFVEVMGNVLDNACKYCLEFVEISARQTDEHLYIVVEDDGPGIPLSKREVIFDRGQRVDTLRPGQGVGLAVAREITEQYEGKIVAGESMLGGARMEVIFGRQHSAPKDE
# Variants of: B1
# Assay: enrichment ratio after two sorts for PhoP signalling (ratio (wild type AVST 3.29)); higher = more functional
# Conditions: with PhoP (E. coli)
row,Variant,enrichment ratio
1,TIGD,11.6
2,WFNN,≤ 0.25
3,VADP,≤ 0.25
4,VWAG,≤ 0.25
5,DDNR,≤ 0.25
6,NTIV,≤ 0.25
7,WGQY,≤ 0.25
8,TAYM,1.39
9,VEWC,3.2
10,QKNL,≤ 0.25
11,KEPS,≤ 0.25
12,IATC,≤ 0.25
13,NNKE,≤ 0.25
14,QGFE,≤ 0.25
15,HVAS,≤ 0.25
16,IRQC,≤ 0.25
17,HHKA,≤ 0.25
18,ERHK,≤ 0.25
19,TIYD,1.06
20,FDKS,≤ 0.25
21,SFIS,≤ 0.25
22,ILCV,≤ 0.25
23,EIWK,≤ 0.25
24,YFML,≤ 0.25
25,ILFN,≤ 0.25
26,GDGT,≤ 0.25

row,Variant,enrichment ratio
1,TDRD,≤ 0.25
2,IPYL,≤ 0.25
3,SDDG,≤ 0.25
4,VYYL,≤ 0.25
5,NPCK,≤ 0.25
6,NYFC,≤ 0.25
7,FGEF,≤ 0.25
8,RYDK,≤ 0.25
9,IDAY,≤ 0.25
10,SVKF,≤ 0.25
11,SSIF,4.39
12,DQPC,≤ 0.25
13,RSTN,≤ 0.25
14,CLYP,≤ 0.25
15,ILYC,≤ 0.25
16,IYYK,≤ 0.25
17,DKLE,≤ 0.25
18,PIVH,≤ 0.25
19,GHWL,≤ 0.25
20,PVTQ,≤ 0.25
21,DSLW,≤ 0.25
22,QIPA,≤ 0.25
23,LQCD,≤ 0.25
24,ADEW,≤ 0.25
25,TLNG,3.64
26,EHSC,≤ 0.25

row,Variant,enrichment ratio
1,NIGR,≤ 0.25
2,VMCM,≤ 0.25
3,LTSY,≤ 0.25
4,LWEG,≤ 0.25
5,PSKQ,≤ 0.25
6,GHFM,≤ 0.25
7,QVDM,2.81
8,KPMN,≤ 0.25
9,NMDI,≤ 0.25
10,HAPV,≤ 0.25
11,NLIR,0.571
12,PRTL,≤ 0.25
13,DNCR,≤ 0.25
14,HQRW,≤ 0.25
15,MYGY,≤ 0.25
16,ELLR,0.33
17,APRC,≤ 0.25
18,ILNH,≤ 0.25
19,PKVT,≤ 0.25
20,SIMA,4.54
21,IKVI,2.58
22,GGHG,≤ 0.25
23,KHES,≤ 0.25
24,VQKA,≤ 0.25
25,DLQV,≤ 0.25
26,PVQW,≤ 0.25

row,Variant,enrichment ratio
1,TMVR,≤ 0.25
2,RRHV,≤ 0.25
3,PENF,≤ 0.25
4,YFNY,≤ 0.25
5,YDML,≤ 0.25
6,GMWV,≤ 0.25
7,IREQ,≤ 0.25
8,RVCQ,≤ 0.25
9,ELGG,≤ 0.25
10,QTII,≤ 0.25
11,SRNK,≤ 0.25
12,LNRA,≤ 0.25
13,HPFD,≤ 0.25
14,HSHN,≤ 0.25
15,HPYK,≤ 0.25
16,NKRN,≤ 0.25
17,SCNE,≤ 0.25
18,YNQM,0.38
19,HNQL,≤ 0.25
20,YNQC,≤ 0.25
21,WLVH,≤ 0.25
22,ARPE,≤ 0.25
23,VMPT,≤ 0.25
24,GERK,≤ 0.25
25,YHHR,≤ 0.25
26,TDAW,≤ 0.25

row,Variant,enrichment ratio
1,LIKP,≤ 0.25
2,YGMI,2.77
3,EQGR,≤ 0.25
4,NHTR,≤ 0.25
5,IPDP,≤ 0.25
6,AKVG,≤ 0.25
7,SVNC,3.7
8,QPGL,≤ 0.25
9,NIGA,≤ 0.25
10,KSKW,≤ 0.25
11,LFTE,≤ 0.25
12,FWII,≤ 0.25
13,SCPQ,≤ 0.25
14,LLVM,≤ 0.25
15,STRA,≤ 0.25
16,EFKL,≤ 0.25
17,DYSE,≤ 0.25
18,EQCE,≤ 0.25
19,DSVC,≤ 0.25
20,NMQN,≤ 0.25
21,DPQL,≤ 0.25
22,VQSR,≤ 0.25
23,NWHC,≤ 0.25
24,NWWM,≤ 0.25
25,CFLV,≤ 0.25
26,LNFT,≤ 0.25

row,Variant,enrichment ratio
1,YHAW,≤ 0.25
2,TQAD,11.6
3,TGGK,≤ 0.25
4,QKHQ,≤ 0.25
5,KASA,≤ 0.25
6,SSCL,18.7
7,IMHR,≤ 0.25
8,WFGN,≤ 0.25
9,AILG,15.7
10,GHGE,≤ 0.25
11,AQNK,≤ 0.25
12,RFLL,≤ 0.25
13,PKDH,≤ 0.25
14,WQMI,≤ 0.25
15,QACT,≤ 0.25
16,MWAR,≤ 0.25
17,WDTA,≤ 0.25
18,YRSF,≤ 0.25
19,IDRC,≤ 0.25
20,AVII,2.36
21,PSQM,≤ 0.25
22,ACFH,≤ 0.25
23,MECP,≤ 0.25
